Measurements from the supplement of paper PMC7125110.
± gives the standard error. Variants at the floor of the assay are shown more often than the library holds them.

B1: glmS ribozyme (parent)
chain: AUAAAAGCGCCAGAACUACAGAAAUGUAGUUGACGAGGAGGAGGUUUAUCGAAUUUUCGGCGGAUGCCUCCAAA

Variants of: B1
Assay: self-cleavage kobs at 10000 uM GlcN6P; higher = faster cleavage; RNA array
Conditions: with glucosamine-6-phosphate
Outline: (§1)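 Weighted Michaelis–Menten fits across concentrations supplied kcat and KM, based on kobs from one- or two-exponential decay fits to normalised per-tile medians. The data came from barcoded ribozyme variants transcribed in situ by E. coli RNA polymerase on sequenced MiSeq chips and tracked at 37 °C by a hybridised Cy3 probe. Glucosamine-6-phosphate (40 μM to 10 mM) in HEPES/KCl/Mg(OAc)2 buffer was flowed in.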

C8U U30G G51U and G7U A15C C67A cannot be ordered by “self-cleavage kobs at 10000 uM GlcN6P” value: < 1e-05 s⁻¹ for the first, < 1e-05 s⁻¹ for the second.

C8G G32U G66U and C8G A42C G66A cannot be ordered by “self-cleavage kobs at 10000 uM GlcN6P” value: < 1e-05 s⁻¹ for the first, < 1e-05 s⁻¹ for the second.

A6C G40U A42U and C11U U56C C61U G63U cannot be ordered by “self-cleavage kobs at 10000 uM GlcN6P” value: < 1e-05 s⁻¹ for the first, < 1e-05 s⁻¹ for the second.

A12G G51U A53G and C10U G35C U46G U55A U56C cannot be ordered by “self-cleavage kobs at 10000 uM GlcN6P” value: < 1e-05 s⁻¹ for the first, < 1e-05 s⁻¹ for the second.

A12U G32U A33U G38C and G9C C34U cannot be ordered by “self-cleavage kobs at 10000 uM GlcN6P” value: < 1e-05 s⁻¹ for the first, < 1e-05 s⁻¹ for the second.

G51A G62C U65C and C10U A52U G66C cannot be ordered by “self-cleavage kobs at 10000 uM GlcN6P” value: < 1e-05 s⁻¹ for the first, < 1e-05 s⁻¹ for the second.

Compared with A12U C50G G62A C71U, A6G A52U G60A G66A is lower in “self-cleavage kobs at 10000 uM GlcN6P” value: 8.18e-05 ± 2.2e-05 s⁻¹ for the first, < 1e-05 s⁻¹ for the second.

G7C C34A and A6G C11G G40A U47G cannot be ordered by “self-cleavage kobs at 10000 uM GlcN6P” value: < 1e-05 s⁻¹ for the first, < 1e-05 s⁻¹ for the second.

C8U A36C G51U and G7C A48G G51U A52C C71U cannot be ordered by “self-cleavage kobs at 10000 uM GlcN6P” value: < 1e-05 s⁻¹ for the first, < 1e-05 s⁻¹ for the second.

G9A G37U A64C and G7U G37U G44C A53C G63U cannot be ordered by “self-cleavage kobs at 10000 uM GlcN6P” value: < 1e-05 s⁻¹ for the first, < 1e-05 s⁻¹ for the second.

A6C C8A A36C and G13C A42C C50U cannot be ordered by “self-cleavage kobs at 10000 uM GlcN6P” value: < 1e-05 s⁻¹ for the first, < 1e-05 s⁻¹ for the second.

First: C8G G9A G35A A36U
Second: G13A C16U G32U
The “self-cleavage kobs at 10000 uM GlcN6P” value of the first is lower: < 1e-05 s⁻¹ for the first, 0.000302 ± 4.9e-05 s⁻¹ for the second.

A6G U46G U56G G63C and G9A G32U G35U cannot be ordered by “self-cleavage kobs at 10000 uM GlcN6P” value: < 1e-05 s⁻¹ for the first, < 1e-05 s⁻¹ for the second.

Compared with A12G A14C C50G C71A, C8U G13A A15U G41A is lower in “self-cleavage kobs at 10000 uM GlcN6P” value: 0.000133 ± 3.2e-05 s⁻¹ for the first, < 1e-05 s⁻¹ for the second.

G9A A33C G37U G41A C68U and A12G A14C A39C G44U G51U cannot be ordered by “self-cleavage kobs at 10000 uM GlcN6P” value: < 1e-05 s⁻¹ for the first, < 1e-05 s⁻¹ for the second.

C8A A14C U49A and G9C A48C C50U U57A C71A cannot be ordered by “self-cleavage kobs at 10000 uM GlcN6P” value: < 1e-05 s⁻¹ for the first, < 1e-05 s⁻¹ for the second.

C10G A39U U56C and A6G C8U A15U G51U C68U cannot be ordered by “self-cleavage kobs at 10000 uM GlcN6P” value: < 1e-05 s⁻¹ for the first, < 1e-05 s⁻¹ for the second.

C8G A14C C68G and G9A U30C G35U U55G cannot be ordered by “self-cleavage kobs at 10000 uM GlcN6P” value: < 1e-05 s⁻¹ for the first, < 1e-05 s⁻¹ for the second.

Compared with C8G G51U U69G, C10G U54G C58G is lower in “self-cleavage kobs at 10000 uM GlcN6P” value: 0.00122 ± 0.00049 s⁻¹ for the first, < 1e-05 s⁻¹ for the second.

C10U G43A G62U and A6G C16U G38U cannot be ordered by “self-cleavage kobs at 10000 uM GlcN6P” value: < 1e-05 s⁻¹ for the first, < 1e-05 s⁻¹ for the second.

A6G G41C U49G G63U and G9A A14C G62U C71U cannot be ordered by “self-cleavage kobs at 10000 uM GlcN6P” value: < 1e-05 s⁻¹ for the first, < 1e-05 s⁻¹ for the second.

C10U G41U U47A C58A and C11G A15G G29U G43U U47G G59C cannot be ordered by “self-cleavage kobs at 10000 uM GlcN6P” value: < 1e-05 s⁻¹ for the first, < 1e-05 s⁻¹ for the second.

G7C G13C A42G and G13A C34U U45A cannot be ordered by “self-cleavage kobs at 10000 uM GlcN6P” value: < 1e-05 s⁻¹ for the first, < 1e-05 s⁻¹ for the second.

C10A A15G A33U A42C and G7C G35U G38U cannot be ordered by “self-cleavage kobs at 10000 uM GlcN6P” value: < 1e-05 s⁻¹ for the first, < 1e-05 s⁻¹ for the second.

C10G C11A G59C and C11G A12G G38C cannot be ordered by “self-cleavage kobs at 10000 uM GlcN6P” value: < 1e-05 s⁻¹ for the first, < 1e-05 s⁻¹ for the second.

C8G G43C C50U and G13C G32C C61A C68G C70G cannot be ordered by “self-cleavage kobs at 10000 uM GlcN6P” value: < 1e-05 s⁻¹ for the first, < 1e-05 s⁻¹ for the second.

A6U G7U G13U U31C and C8A G9U G35U U49A C50U C71G cannot be ordered by “self-cleavage kobs at 10000 uM GlcN6P” value: < 1e-05 s⁻¹ for the first, < 1e-05 s⁻¹ for the second.

C10A C16G G41C and G9C U46A C58U cannot be ordered by “self-cleavage kobs at 10000 uM GlcN6P” value: < 1e-05 s⁻¹ for the first, < 1e-05 s⁻¹ for the second.

C8A G9A C10U A33G A36G A39U U47C C58A and A12U G35A A48U G62A C70G cannot be ordered by “self-cleavage kobs at 10000 uM GlcN6P” value: < 1e-05 s⁻¹ for the first, < 1e-05 s⁻¹ for the second.

G7C G29C C70G and G51C G66A cannot be ordered by “self-cleavage kobs at 10000 uM GlcN6P” value: < 1e-05 s⁻¹ for the first, < 1e-05 s⁻¹ for the second.

Variants of: B1
Assay: self-cleavage kobs at 2500 uM GlcN6P; higher = faster cleavage; RNA array
Conditions: with glucosamine-6-phosphate
Outline: as §1

Compared with G41A U49G G62C, C61U U65A C67U C70A is higher in “self-cleavage kobs at 2500 uM GlcN6P” value: < 1e-05 s⁻¹ for the first, 5.06e-05 ± 2.1e-05 s⁻¹ for the second.

G44U C58A G63U C71A and G51A G62C U65C cannot be ordered by “self-cleavage kobs at 2500 uM GlcN6P” value: < 1e-05 s⁻¹ for the first, < 1e-05 s⁻¹ for the second.

A48G A52G A53G G59U and G41A A42U U47C U55A C68A cannot be ordered by “self-cleavage kobs at 2500 uM GlcN6P” value: < 1e-05 s⁻¹ for the first, < 1e-05 s⁻¹ for the second.

U46C U57C G59A and U45G G60A C67G C68U cannot be ordered by “self-cleavage kobs at 2500 uM GlcN6P” value: < 1e-05 s⁻¹ for the first, < 1e-05 s⁻¹ for the second.

G41C U46G A64U U65C and G41U U47G U49A G66C C71U cannot be ordered by “self-cleavage kobs at 2500 uM GlcN6P” value: < 1e-05 s⁻¹ for the first, < 1e-05 s⁻¹ for the second.

G43A A52C G66C U69G and U46G U49G C50U cannot be ordered by “self-cleavage kobs at 2500 uM GlcN6P” value: < 1e-05 s⁻¹ for the first, < 1e-05 s⁻¹ for the second.

G43U G44U U49A U55A and G59U U65A cannot be ordered by “self-cleavage kobs at 2500 uM GlcN6P” value: < 1e-05 s⁻¹ for the first, < 1e-05 s⁻¹ for the second.

U46G U54A C61G and A42G U46A C58G G60U cannot be ordered by “self-cleavage kobs at 2500 uM GlcN6P” value: < 1e-05 s⁻¹ for the first, < 1e-05 s⁻¹ for the second.

U46G A52C C58A and G43A A48U U54A C68G cannot be ordered by “self-cleavage kobs at 2500 uM GlcN6P” value: < 1e-05 s⁻¹ for the first, < 1e-05 s⁻¹ for the second.

A42G A52G C68A and G44C U49A G60A G66U cannot be ordered by “self-cleavage kobs at 2500 uM GlcN6P” value: < 1e-05 s⁻¹ for the first, < 1e-05 s⁻¹ for the second.

G41U G51U A52C G66A C70A and G51C G62U C71U cannot be ordered by “self-cleavage kobs at 2500 uM GlcN6P” value: < 1e-05 s⁻¹ for the first, < 1e-05 s⁻¹ for the second.

G44U A52G C67U U69G and G51U A53U C58G G63C cannot be ordered by “self-cleavage kobs at 2500 uM GlcN6P” value: < 1e-05 s⁻¹ for the first, < 1e-05 s⁻¹ for the second.

A48C U57C G62A and A42G G51C G60C cannot be ordered by “self-cleavage kobs at 2500 uM GlcN6P” value: < 1e-05 s⁻¹ for the first, < 1e-05 s⁻¹ for the second.

In the case of G51C G66A, the “self-cleavage kobs at 2500 uM GlcN6P” value is reported as < 1e-05 s⁻¹.
